Literature values as cited in patent publication US20240016871A1, “Non-toxic furocoumarin-rich plant extracts and related compositions for use as antimicrobial substance or medicament and other therapeutic uses” (ICE-P LIFE, S.L., priority 2020, published 2024).

Tested on: COVID19
Conditions: in vivo

Compound	effect in reducing COVID19-confirmed 28-day mortality
CCN(CCO)CCCC(C)Nc1ccnc2cc(Cl)ccc12 (centres unmarked) [hydroxychloroquine]	little or no effect
lopinavir/ritonavir	little or no effect
